Laboratory results from the RNAGym collection of RNA variant scans (doi:10.7554/elife.90254).
Read counts are not given, so values of variants with three or more changes are uncertain.

B1: LINE1-full (parent)
chain: UACGUAGGUGGUUUUCCCCUGAUAGUGCUAAGGGGGCCUGGAAGUUUGGACUGGGCAGAGCUCAACACAGCGUGGCAAAGUGGCUGUGGCUAGACUGCCUCUCUGGAUUCCUCGUCACUCAGCAGGGCAUCUCUGAGAGAAAUGCC

Variants of: B1
Experiment: self-cleavage, relative activity (ratio to wild type); higher = more cleavage; in vitro, sequencing; the parent is a self-cleaving ribozyme
Variant UACGUAGGUGGUUUUCCCCUGAUAGUGCUAAGGGGGCCUGGAAGUUUGGACUGGGCAGAGCUCGACACAGCGAGGCAAAGUGGCUGUGGCUAGACUGCCUCUCUGGGUUCCUCGUCACUCAGCAGGGCAUCUCUGAGAGAAAUGCC [A64G U73A A107G] has a self-cleavage of 0.11.
UACGUAGGUGGUUUUCCCCUGAUAGUGCUAGGGGGGCCUGGAAGUUUGGACUGGGCAGAGCUCAUCACAGCGUGGCAAAGUGGCUGUGGCUAGACUGCCUCUCUGGAUUCCUCGUCACUCAGCAGGGCGUCUCUGAGAGGAAUGCC [A31G A65U A129G A140G] showed a self-cleavage of 0.25.
UACGUAGGUGGUUUUCCCCUGAUAGUGCUAAGGGGGCCUGGAAGUUUGGACUGGGCAGGGCUCAACACAGCGAGGCAAGGUGGCUGUGACUAGACUGCCUCUCUGGAUUCCUCGUCACUCAGCAGGGUAUCUCUGAGAGAAAUGCC [A59G U73A A79G G89A C128U] gave a self-cleavage of 0.04.
In the case of UACGUAGGUGGUUUUCCCCUGAUAGUGCUAGGGGGGCCUGGAGGUUUGGACUGGGCAGAGCUCAACACAGCGUGGCAAAGUGGCUGUGGCUAGACUGCCUCUCUUGAUUCCUCGCCACUCAGCAGGGCAUCUCUGAGGGAAAUGCC [A31G A43G G105U U115C A138G], the self-cleavage is reported as 1.6.
UACGUAGGUGAUUUUCCCCUGUUAGUGCUAAGGGGGCCUGGGAGUUUGGACUGGGCAGAGCUCAACACAGCGUGGCAAAGUGGCUGUGGCUAGACUGCCUCUCUGGAUUCCUCGUCACUCAGCAGGGCAUCUCUGAGAGAAAUGCC [G11A A22U A42G] showed a self-cleavage of 1.58.
With UACGUAGGUGGUUUUCCCCUGAUAGAGCUAAGGGGGCCAGGAAGUUUGGACUGGGCAGAGCUCAACACAGCGUGGCAAAGUGGCUGUGGCUAGACUGCCUCCCUGGAUUCCUCGUCACUCAGCAGGGCAUCUCAGAGAGAAAUGCC [U26A U39A U102C U134A] the self-cleavage was 2.12.
With UACGUAGGUGGUUUUCCCCUGAUAGUGCUAAGGGGGCCUGGAAGUUUGGACUGGGCAGAGCUCAACACAGCGUGACAAAGUGGCUGUGGCUAGACUGCCUCUCUGGAUUCCUUGUCACACAGCAGGGCAUCUCUGAGAGAAAUGCC [G75A C113U U119A] the self-cleavage was 0.47.
Variant UAUGUAGGUGGUUUUCCCCUGAUAGUGCUAAGGGGGCCUGGAAGUUUGGACUGGGCAGAGCUCAACACGGCGUGGCAAAGUGGCUGUGGCUAGACUGCCUCUCUGGAUUCCUCGUCACUCAGCAGGGCAUCUCUGUGAGAAAUGCC [C3U A69G A136U] has a self-cleavage of 0.68.
In the case of UACGUAGGUGGUUUUCCCCUGAUAGUGCUAAGGGGGCCUGGAAGUUUGGACUGGGCAGAGCUCAACACAGCGUGGCAUAGUGGCUGUGGCUAGACAGCCUCUCUGGAUUCCUCGUCACCCAGCAGGGCAUCUCUGAGAGAAAUGCC [A78U U96A U119C], the self-cleavage is reported as 0.07.
With CACGUAGGUGGUUUUCCCCCGAUAGUGCUAAGGGGGCCUGGAAGUUUGGACUGGGCAGGGCUCAACACAGCGUGGCAAAGUGGCUGUGGCUAGACUGCCUCUCUGGAUUCCUCGUCACUCAGCAGGGCAUCUCUGAGAGAAAUGCC [U1C U20C A59G] the self-cleavage was 0.34.
For UACGUAGGUGGUUUUCCCCUGAUAGUGCUAAGGGGGCCUGGAAGUCUGGACAGGGCAGAGCUCAACACUGCGUGGCAAAGUGGCUGUGGCUAGACUGCCUCUCUGGAUUCCUCGUCACUCAGCAGGGCAUCUCUGAGAUAAAUGCC [U46C U52A A69U G139U], the self-cleavage was 0.04.
For UACGUUGGUGGUUUUCCCUUGAUAGUGCUAAGGGGGCCUGGAAGUUUGGACUGGGCAGAGCUCAACACAGCGUGGCAAAGUGGCCGUGGCUAGACUGCCUCUCUGGAUUCCUCGUCACUCAGCAGGGCGUCUCUGAGAGAAAUGCC [A6U C19U U85C A129G], the self-cleavage was 0.48.
With UACGUAGGUGGUUUUCCCCUGAUAGCGCUAAGGGGGCCUGGAAGUUUGGACUGGGCAGAGCUCAACACAGCGUGGCAGAGUGGCUGUGGCUAGACUGCCUCUCUGGAUUCCUCGUCACCCAGCAGGGCAUCUCUGAGAGAAAUGCC [U26C A78G U119C] the self-cleavage was 2.04.
With UACGUAGGUGGUUUUCCCCUGAUAGUGCUAAGGGGGCCUGGAAGUUUGGACUGGGCAGAGCUCAACACAGCGUGGCAAAGUGGCUGAGGCUAGACUGCCUCUCUGGAUUCCUCGUCACUCAGCAGGGCUUCUCUGAGAGAAACGCC [U87A A129U U143C] the self-cleavage was 0.07.
For UACGUAGGUGGUUUUCCCCAGAUAGUGCUAAGGGGGCCUAGAAGUUUGGACUGGGCAGAGCUCAACACAGCGUGGCAAAGUGGCUGUGGCUAGACUGCCUCUCUGGAUUCCUCGUCACUCAGCAGGGCAACUCUGAGAGUAAUGCC [U20A G40A U130A A140U], the self-cleavage was 1.
With UACGUAGGUGGUUUUCCCCUGAUAGUGCUAAGGGGGCCUGGAGGUUCGGACUGGGCAGAGCUCAACACAGCGUGGCAAAGUGGCUGUGGCUAGACUGCCUCUCUGGAUUCCUCGUCACUCAGCAGGGCAUCUCUGAGAGAUAUGCC [A43G U47C A141U] the self-cleavage was 1.76.
Work on UACGUAGGUGGUUUUCCCCUGAUAGUGCUAAGGGGGCCUGGAAGUUUGGACUGGGCAGAGCUCAACACAGCGUGGCAAAGUGGCUGUGGCUAGACUGCCUCUCUGGGUUCCUCGUCACUCAGCAGGGCAUCUCUGGGAGAAAUGCG [A107G A136G C146G] yielded a self-cleavage of 1.31.
For UACGUAGGUGGUUUUCCCCUGAUAGAGCUAGGGGGGCCUGGAAGUUUGGACUGGGCAGAGCUCAACACAGCGUGGCAAAGUGGCUGUGGCUAGACUGCCUCUCUAGAUUCCUCGUCACUCAGCAGGGCAUCUCUGAGAGAAAUGCC [U26A A31G G105A], the self-cleavage was 0.94.
In the case of UACGUAGGUGGUUCUCCCCUGAUAGCGCUAAGGGGGCCUGGAAGUUUGGACAGGGCAGAGCUCAACACAGCGUGGCAAAGUGGCUGUGGCUAGACUGCCUCUCUGGAUUCCUCGUCACUCAGCAGGGCAUCUCUGAGAGAAGUGCC [U14C U26C U52A A142G], the self-cleavage is reported as 1.48.
